From patent US20220403048A1, “BINDING MOLECULES TO ARGINASE II [ARG2]” (Cancer Research Technology Limited, priority 2019, published 2022) come the findings set out here.

The experiment concerns the target T1, human ARG2 (Homo sapiens, UniProt P78540).
T1 construct: made in house
T1 sequence (P78540 with tags, fused parts or gaps): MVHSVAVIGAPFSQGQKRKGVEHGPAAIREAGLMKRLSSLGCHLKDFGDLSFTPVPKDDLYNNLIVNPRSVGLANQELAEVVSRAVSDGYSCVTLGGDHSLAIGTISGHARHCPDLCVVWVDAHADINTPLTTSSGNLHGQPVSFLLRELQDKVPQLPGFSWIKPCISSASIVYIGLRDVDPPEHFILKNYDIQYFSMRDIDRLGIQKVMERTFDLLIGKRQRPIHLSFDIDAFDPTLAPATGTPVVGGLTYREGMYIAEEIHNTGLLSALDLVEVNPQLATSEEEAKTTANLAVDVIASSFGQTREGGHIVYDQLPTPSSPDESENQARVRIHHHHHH
The experiment in a line: X-ray co-crystal structures of ARG2-Fab complexes, buried surface area of epitope residues. To be noted: total of interface residues; C0020187 complex. The protocol:
The construct used for crystal trials was ARG2 (23-354) containing a C-terminal Gly3 linker and His10-tag (ARG2+C0020187, SEQ ID NO: 355: huARG2-His10) or a simple C-terminal His6-tag (ARG2+C0021181 and ARG2+C0021158, SEQ ID NO: 357: huARG2-His6). Crystals suitable for structure determination were obtained using the sitting drop methodology. For ARG2+C0020187, 0.2 μl of complex solution (2.0 mg/ml, ARG2:Fab=3:1, purified by gel filtration) were mixed with 0.1 μl of crystallisation solution containing 2 M (NH4)2SO4. Round, disc-shaped crystals (60×60×20 μm) appeared after 2 days. For ARG2+C0021181, 0.5 μl of complex solution (6.3 mg/ml) were mixed with 0.5 μl of a crystallisation solution containing 100 mM MMT (malic acid:MES:tris=1:2:2) pH 5.0, 20% glycerol, 10% PEG4000, 15 mM NaNO3, 15 mM Na2HPO4, 15 mM (NH4)2SO4. Hexagonal disc-shaped crystals (100×100×20 μm) appeared after 2 days and reached their final size after a week. For ARG2+C0021158, 0.25 μl of complex solution (7.0 mg/ml, containing 20% diluted microseeds of an ARG2+C0021181 crystal) were mixed with 0.25 μl of a crystallisation solution containing 2 M (NH4)2SO4. Crystals of irregular shape (60×60×60 μm) appeared after 2 days. For the ARG2+C0020187 and ARG2+C0021158 crystals, 3 M (NH4)2SO4 and 5% glycerol were added for cryo-protection, after which the crystals were cryo-cooled by plunging them into liquid N2. […]

B1: C0020187: anti-ARG2 antibody, parent lead isolation clone, VH SEQ ID NO: 12, VL SEQ ID NO: 17 (antibody, listed as Homo sapiens, V domains shown)
VH: [about 100 residues not given here]LRADLGLYMDLWGRGTLVTVSS
VL: QSVLTQPPSVSAAPGQKVTISCSGSSSNIGNHYVSWYQQLPGTAPKLLIYDNSERPSGIPDRFSGSKSGTSATLGITGLQTGDEADYYCGTWDSSLSALVFGGGTKLTVL
modifications: C0020187
Consider B1, for which the “% buried” value is 39%.
